Data: PubChem BioAssay AID1963576 (National Center for Advancing Translational Sciences (NCATS), 2024)
The whole screen tested about 46,000 compounds, of which about 60 (0.1%) were called active. Inconclusive results (about 3%) are left out. Calls follow the shape of the dose curve; as a rule, active = well fitted inhibition curve with a large enough effect; inconclusive = small, poorly fitted or top-dose-only effect; inactive = no such curve, though single readings can be large or run the other way. The list shows a part of the results.

assay: Primary qHTS assay for Inhibitors of ovarian cancer metastasis using an organotypic tumor microenvironment (TME) model.; also: nearly all actives have a fitted effect of over 65% in size;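 as to activity change, negative = inhibition: plate controls were DMSO wells for no effect and tomatine positive control wells for full effect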; details: SKOV3ip1-GFP adhesion/invasion on 3D omental model, fluorescence; series mostly up to 45.8 µM; activity change, negative = inhibition: at the top concentration
Method in brief: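 A 3D layer of primary human omental fibroblasts, mesothelial cells, fibronectin and collagen I, grown 48 hr, received SKOV3ip1-GFP cells in serum-free medium plus compounds at 0.36-46 umol/L. After 2 hr RT and 16 hr 37 C, fixed adherent GFP cells were counted; normalized to DMSO and tomatine.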

Row | SMILES | activity change, negative = inhibition | outcome
1 | CCc1ccc2oc(-c3ccc(NC(=O)c4ccc(OC)c(Br)c4)cc3)nc2c1 | inactive: 0.621% | –
2 | Cc1cccc(C)c1OCC(=O)Nc1nc(-c2ccc(Br)cc2)ns1 | – | inactive
3 | Cc1cc(C)c(Cn2c3ccccc3c3cnn(CC(=O)N4CCCCCC4)c(=O)c32)c(C)c1 | inactive: 3.12% | –
4 | Cc1ccc(-c2cc(C(F)(F)F)n3nc(C(=O)Nc4ccc(Cl)c(C(F)(F)F)c4)cc3n2)cc1 | inactive: 6.41% | –
5 | Cc1cccc(-n2c(-c3ccccc3)cn3c4c(=O)[nH]c(=O)n(C)c4nc23)c1 | inactive: 7.86% | –
6 | Cn1cc(S(=O)(=O)c2ccccc2)c(=O)c2cc(F)c(N3CCN(c4ccccc4)CC3)cc21 | inactive: 5.69% | –
7 | COC(=O)c1cc(C)nc2c1c(=O)nc(SCc1ccccc1F)n2C1CC1 | inactive: -3.27% | –
8 | CCOC(=O)CN1C(=O)C(O)(CC(=O)c2cc(OC)ccc2OC)c2ccccc21 (configuration not stated) | inactive: 1.8% | –
9 | O=S1(=O)c2ccccc2N(Cc2ccccc2)c2ccccc21 | inactive: -1.97% | –
10 | CC(=O)c1ccc(NC(=O)c2c3c(nc4ccccc24)C(=O)N(C2CCCCC2)C3)cc1 | inactive: -7.42% | –
11 | CCN(CC)CCCNC(=O)C1CCN(S(=O)(=O)CC)CC1 | inactive: 5.21% | –
12 | CCOc1ccc(C(=O)Nc2c(C(=O)Nc3ccccc3F)oc3ccccc23)cc1OCC | inactive: -7.11% | –
13 | O=C(Cn1c(=O)n(-c2cccc(Cl)c2)c(=O)c2sc3ccccc3c21)N1CCCC1 | inactive: -5.85% | –
14 | O=C(c1ccc2c(c1)CCN2S(=O)(=O)c1ccccc1)N1CCN(c2ccc(F)cc2)CC1 | inactive: -0.702% | –
15 | COc1cccc(N2CCN(C(=O)c3cnn(C(C)(C)C)c3C3CCN(C(=O)OC(C)(C)C)CC3)CC2)c1 | – | inactive
16 | O=C(Nc1cccc(Br)c1)N1CCC(CN2CCCCC2)CC1 | inactive: -2.15% | –
17 | COc1ccc(OCCn2cc(C(=O)C3CCCCC3)c3ccccc32)cc1 | inactive: 3.4% | –
18 | CC(=O)c1cc2c(cc1NC(=O)c1c(C)nn(-c3ccc(C)cc3)c1-n1cccc1)OCO2 | inactive: -7.59% | –
19 | CC1CCN(Cc2c(O)ccc3c(=O)c(-c4cccc(Cl)c4)c(C(F)(F)F)oc23)CC1 | inactive: 0.356% | –
20 | CCc1cccc(NC(=O)Cn2c(=O)n(Cc3ccccc3)c(=O)c3c2c2cc(OC)ccc2n3C)c1 | inactive: -3.83% | –
21 | O=C(NCc1ccc(Cl)cc1)C(=O)Nc1ccc(Br)cc1 | inactive: -11% | –
22 | O=S(=O)(Nc1ccc2oc3c(c2c1)CCCC3)c1cc(Cl)ccc1Cl | inactive: 0.732% | –
23 | CCN(C(=O)Cn1nc(Cc2cccnc2)c2ccccc2c1=O)c1ccccc1F | inactive: -5.49% | –
24 | CC1CCN(C(=O)CSc2nnc(-c3ccccc3Cl)o2)CC1 | inactive: -3.97% | –

Row | SMILES | activity change, negative = inhibition | outcome
25 | COc1ccc(NC(=O)/C(C#N)=C/c2ccc(OCc3cc(=O)n4nc(C)sc4n3)cc2)cc1 | inactive: 19.1% | –
26 | COC(=O)c1c(NC(=O)CCCOc2ccc(C(C)(C)C)cc2)sc2c1CCC(C)C2 (configuration not stated) | inactive: 0.627% | –
27 | O=C(NCCc1csc(-c2ccc(Cl)cc2)n1)c1cccs1 | inactive: -5.26% | –
28 | CCc1ccccc1NC(=O)Cn1c(-c2nonc2N)nc2ccccc21 | – | inactive
29 | COc1ccc(-c2onc(C)c2C)cc1S(=O)(=O)N1c2ccccc2CC1C (configuration not stated) | – | inactive
30 | COc1ccc(C2Sc3ccccc3NC3=C2C(=O)c2ccccc23)c(OC)c1OC (configuration not stated) | inactive: -18% | –
31 | COc1ccc(NC(=O)CCNS(=O)(=O)c2cccc3nsnc23)cc1 | inactive: -3.52% | –
32 | Cc1ccc2nc(-c3cc(NC(=O)c4ccc5c(c4)OCCO5)ccc3Cl)oc2c1 | inactive: 3.35% | –
33 | COc1ccc(-c2nnc(C3CCN(C(=O)c4ccccc4F)CC3)o2)cc1 | inactive: -2.23% | –
34 | Cc1cccc(NC(=O)C2CCN(c3nnc(-n4c(C)ccc4C)s3)CC2)c1C | – | inactive
35 | Cc1ccc(S(=O)(=O)NCCc2cn3c(C)csc3n2)cc1 | inactive: 3.96% | –
36 | OCCN1C[C@H](O)[C@@H](O)[C@H](O)[C@@H]1CO | inactive: -1.21% | –
37 | COc1ccc(C2c3c(oc4ccc(F)cc4c3=O)C(=O)N2Cc2ccc3c(c2)OCO3)cc1 (configuration not stated) | inactive: 0.325% | –
38 | CCOc1ccc(C(CC(=O)O)N2Cc3ccccc3C2=O)cc1OC (configuration not stated) | – | inactive
39 | Cc1ccc(N2CC(c3nc4ccccc4n3CCC3CCCCC3)CC2=O)cc1 (configuration not stated) | inactive: 0.319% | –
40 | CCOC(=O)c1cccc(Nc2c3c(nc4ccccc24)CCC3)c1 | inactive: -16.9% | –
41 | O=C(NCCS(=O)(=O)N1CCN(c2ccccc2)CC1)C(c1ccccc1)c1ccccc1 | inactive: -2.81% | –
42 | O=C1CC(c2ccccc2)Cc2[nH]c(=O)c(C(=O)Nc3cccc(F)c3)cc21 (configuration not stated) | inactive: -19.3% | –
43 | COc1cccc(N2CCN(S(=O)(=O)c3ccc4[nH]c5c(c4c3)CCCC5)CC2)c1 | – | inactive
44 | O=C(Nc1ccccc1Br)C1CCCN(S(=O)(=O)c2cccc3nsnc23)C1 (configuration not stated) | inactive: -7.11% | –
45 | Cc1cccc(N(C)C(=O)c2cc(S(=O)(=O)N3CCCC3)cn2C)c1 | – | inactive
46 | COC(=O)c1ccccc1NC(=O)NCCc1c(C)nn(C)c1C | inactive: -0.432% | –
47 | CCc1ccc(CNCc2c(C(=O)O)n(Cc3cccc(F)c3)c3cc(OC)ccc23)cc1 | inactive: 9.38% | –
